Assay results from paper PMC8508763.
Numbering of substitutions follows the chain as printed. Names and notes keep the numbering of the source. Results are given in words; binding and its absence hold for the method and conditions named. For some assays here: Binding seen in cells or lysates may run through a third protein. Some results given as binding are weak or reduced against the parent protein; the word gives no strength. For some assays here: Tags and fused reporters may be left off the sequences shown.

The chains behind the UniProt entries cited, without tags or fusion partners. Where a name states a change or a piece, a line headed by the entry shows the natural chain unless it says otherwise. A line that says so, or that is headed by a name, gives the form on record, which may keep a tag or linker.
UniProt P31946: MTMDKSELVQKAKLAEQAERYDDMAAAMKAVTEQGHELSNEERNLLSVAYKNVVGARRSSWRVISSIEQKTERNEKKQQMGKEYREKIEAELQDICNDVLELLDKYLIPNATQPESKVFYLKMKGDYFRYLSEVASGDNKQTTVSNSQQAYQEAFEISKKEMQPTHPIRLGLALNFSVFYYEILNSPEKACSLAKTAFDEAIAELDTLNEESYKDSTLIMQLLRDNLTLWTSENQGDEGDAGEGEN
HA-14-3-3β(C96, 191S) (P31946, form named): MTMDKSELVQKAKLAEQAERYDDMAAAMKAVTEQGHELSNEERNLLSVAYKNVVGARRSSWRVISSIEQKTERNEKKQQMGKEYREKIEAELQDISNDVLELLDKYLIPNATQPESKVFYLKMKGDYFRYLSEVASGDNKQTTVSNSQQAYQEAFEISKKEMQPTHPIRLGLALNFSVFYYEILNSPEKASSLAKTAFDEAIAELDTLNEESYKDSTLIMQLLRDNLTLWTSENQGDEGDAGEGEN

Experiments:
Trx1-His (human) [1] = molecular target: T1, Trx1-His (human) (UniProt P10599); test: pull-down; competition: purified Trx1-His (5 μg) and lysate overexpressing HA-14-3-3β (5 μg) with 0, 1, 2 or 5 μg GST-SELENOW(U13C) for 2 h; glutathione or Ni-NTA beads 1 h; non-reducing SDS-PAGE, immunoblot anti-HA; only the target purified
T1 sequence: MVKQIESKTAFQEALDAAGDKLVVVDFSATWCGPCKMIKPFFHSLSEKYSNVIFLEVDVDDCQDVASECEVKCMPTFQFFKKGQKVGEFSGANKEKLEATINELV

Trx1-His (human) [2] = molecular target: T1, Trx1-His (human); test: pull-down; purified Trx1-His incubated with lysate of HEK293 cells overexpressing HA-14-3-3β for 1 h, Ni-NTA beads 1 h, immunoblot anti-HA / anti-His; only the target purified
[3] = molecular target: HA-14-3-3β(C191S) (human) (UniProt P31946); test: co-IP; HEK293 cells transfected with HA-14-3-3β (WT or Cys mutants); extracts immunoprecipitated with anti-HA, immunoblotted with anti-Trx1; with or without H2O2 (200 μM, 30 min)
[4] = molecular target: HA-14-3-3β(C96, 191S) (human) (UniProt P31946); test: as above
HA-14-3-3β (human) = HA-14-3-3β (human) (UniProt P31946); test: as above
GST-14-3-3β (human) = GST-14-3-3β (human) (UniProt P31946); test: pull-down; purified Trx1-His (WT, C32S or C35S) incubated with purified GST-14-3-3β, glutathione beads 1 h, immunoblot anti-His / anti-GST; 20 mM HEPES pH 7.5, 1 mM EDTA, 4 °C; both purified

What does the source list for HA-14-3-3β (from UniProt P31946 1-246)?
binding (Trx1-His (human) [1]): binds; binding (Trx1-His (human) [2]): binds

B1: Thioredoxin 1 (endogenous) (protein, UniProt P10599 1-105)
chain: T1 sequence
What does the source list for B1?
binding [3]: no binding; binding [4]: no binding; binding (HA-14-3-3β (human)): binds

B2: Trx1-His (protein, UniProt P10599 1-105)
chain: T1 sequence
How did the binding (GST-14-3-3β (human)) turn out when B2 was run?
Its binding is “binds”.

B3: Trx1(C35S)-His (protein, UniProt P10599 1-105)
chain: T1 sequence with C35S
Which binding (GST-14-3-3β (human)) does the source give for B3 here?
The binding was “binds”.

B4: Trx1(C32S)-His (protein, UniProt P10599 1-105)
chain: T1 sequence with C32S
With B4 as the molecule, how does the binding (GST-14-3-3β (human)) read?
The binding was “no binding”.
